Out of some 310,000 compounds screened, about 2,200 (0.71%) showed an effect of 50% or more. Effects have a minus sign here. Some of the results follow.
The molecules below were run against human ether-à-go-go-related gene (hERG) potassium channel (human, UniProt Q12809) (assay: primary screen, population patch clamp on CHO cells stably expressing hERG).
Sequence of human ether-à-go-go-related gene (hERG) potassium channel (Q12809 whole entry, looked up): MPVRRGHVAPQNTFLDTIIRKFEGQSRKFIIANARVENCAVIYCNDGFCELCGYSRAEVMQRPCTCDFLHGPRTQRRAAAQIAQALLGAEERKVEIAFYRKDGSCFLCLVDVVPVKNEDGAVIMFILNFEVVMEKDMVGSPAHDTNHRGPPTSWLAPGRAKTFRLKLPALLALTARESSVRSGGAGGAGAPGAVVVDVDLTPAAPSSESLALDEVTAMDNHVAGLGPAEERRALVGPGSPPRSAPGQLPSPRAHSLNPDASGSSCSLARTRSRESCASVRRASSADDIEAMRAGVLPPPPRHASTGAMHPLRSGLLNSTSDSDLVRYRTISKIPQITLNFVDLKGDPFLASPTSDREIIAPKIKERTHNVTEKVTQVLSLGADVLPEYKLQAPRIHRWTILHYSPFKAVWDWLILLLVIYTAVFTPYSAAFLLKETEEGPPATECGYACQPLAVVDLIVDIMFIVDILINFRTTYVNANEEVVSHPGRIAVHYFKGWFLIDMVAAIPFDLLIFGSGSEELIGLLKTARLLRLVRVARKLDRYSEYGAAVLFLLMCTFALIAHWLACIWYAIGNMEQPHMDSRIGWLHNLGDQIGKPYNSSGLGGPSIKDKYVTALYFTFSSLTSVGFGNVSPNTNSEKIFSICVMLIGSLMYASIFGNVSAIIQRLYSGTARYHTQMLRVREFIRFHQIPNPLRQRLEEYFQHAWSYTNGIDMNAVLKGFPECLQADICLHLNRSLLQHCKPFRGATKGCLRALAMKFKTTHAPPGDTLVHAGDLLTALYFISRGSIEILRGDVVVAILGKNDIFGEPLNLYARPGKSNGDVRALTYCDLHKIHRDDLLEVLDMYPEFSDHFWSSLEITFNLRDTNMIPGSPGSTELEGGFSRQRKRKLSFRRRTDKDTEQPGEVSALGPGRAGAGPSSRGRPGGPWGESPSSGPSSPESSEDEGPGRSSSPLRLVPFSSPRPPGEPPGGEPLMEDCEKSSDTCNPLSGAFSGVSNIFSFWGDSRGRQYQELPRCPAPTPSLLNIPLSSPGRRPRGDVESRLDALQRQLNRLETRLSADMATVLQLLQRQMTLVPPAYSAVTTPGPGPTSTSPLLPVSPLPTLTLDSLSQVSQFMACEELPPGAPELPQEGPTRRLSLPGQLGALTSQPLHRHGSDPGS

SMILES | hERG current change (%, negative = inhibition) at 1uM [%]
CC1CC1C(=O)N(C)CC(=O)Nc1cccc(F)c1 (stereo not shown) | 14.3
COc1ccc(CN(C(=O)c2oc3cc(C)ccc3c2C)C2CCS(=O)(=O)C2)cc1OC (stereo not shown) | 10.1
Cc1nn(C(=O)c2c(-c3ccccc3)noc2C)c(C)c1N=Nc1cc(C(F)(F)F)cc(C(F)(F)F)c1 | 16.2
CCOC(=O)Cn1c(=O)n(Cc2ccc(OC)cc2)c(=O)c2cccnc21 | 6.99
COc1ccccc1NC(=O)c1cc2ccccc2nc1C | 5.66
COc1cccc(/C=N/Nc2snc(SC)c2C#N)c1 | 6.81
Cc1cccc(N2CCN(C(=O)c3cc(S(=O)(=O)N(C)C)ccc3N3CCCC3)CC2)c1C | 5.76
CCN(CC)S(=O)(=O)c1ccc(N2CCOCC2)c(NC(=O)C2CC2)c1 | 11.3
Nc1nc(N2CCN(Cc3ccccc3)CC2)n[nH]1 | 18.6
O=C(OCc1ccccc1)c1cccc(-c2nnc(-c3ccccc3)o2)c1 | 1.17
CC(C)Cc1ccc(/C=C/C(=O)N2CCOCC2)cc1 | 4.88
COc1cccc(C2CC(c3ccccc3OC)n3nc(N)nc3N2)c1 (stereo not shown) | -0.164
Cc1ccc(CNC(=O)c2ccc(COc3ccccc3)cc2)cc1 | 3.02
CCc1ccc(-c2nc(CSCC(=O)N3CCN(c4ncccn4)CC3)c(C)o2)cc1 | -9.6
CCOC(=O)c1c(-c2ccc(C)o2)csc1NC(=O)CN1CCCCC1.O=C(O)C(=O)O | -0.16
CC(C)[C@H](NC(=O)c1ccc(C(C)(C)C)cc1)C(=O)Nc1nnc(C2CC2)s1 | 6.77
CSc1nc(Oc2ccccc2)c2sccc2n1 | 6.24
COc1ccc(CCn2c(=S)[nH]c3ccc(N4CCOCC4)cc3c2=O)cc1OC | 8.71
OCCNc1nc(Nc2ccccc2)nc(Nc2ccccc2)n1 | 1.91
COc1ccc(F)c(CN2CCCC(CO)(Cc3cccc(Cl)c3)C2)c1 (stereo not shown) | 11.8
Cn1c(O)c(C=NCCCCCCCCCCC(=O)O)c(=O)n(C)c1=O | 11
COc1cccc(C2=CC(c3ccc(N(C)C)cc3)n3nnnc3N2)c1 (stereo not shown) | 15.7
Cc1cc(C)c2c(=O)c(C#N)coc2c1 | 0.604
COc1ccc(-n2nc3c(c2NC(=O)COc2ccccc2F)CS(=O)(=O)C3)cc1 | 2.02
Cc1cccc(Nc2nnc(SCC3CCCCO3)s2)c1C (stereo not shown) | -4.03
COC(=O)CC1C(C(=O)OC)ON2OC(C(=O)OC)C(C(=O)OC)C12 (stereo not shown) | 10.4
CCSc1nc(O)c(C(c2cccc(OC)c2)c2c(O)nc(SCC)[nH]c2=O)c(=O)[nH]1 | 10.4
FC(F)(F)c1cc(-c2cccs2)nc(N2CCOCC2)n1 | 14.2

SMILES | hERG current change (%, negative = inhibition) at 1uM [%]
CCOc1ccc2nc(NC(=O)c3cccnc3)sc2c1 | 13.8
COC(=O)C1=C(C)N(C)C(=O)/C1=C\c1ccco1 | 12.5
COc1ccccc1Nc1nc(N)nc(-c2cc3ccccc3o2)n1 | 24.8
Cc1cccc(NC(=O)c2ccc(S(=O)(=O)N3CCN(C)CC3)cc2)c1C | 6.26
Cc1ccc(-n2nc3cc(C)c(NC(=O)c4cccnc4)cc3n2)cc1 | 6.99
COc1ccc(S(=O)(=O)N2CCOC2CNC(=O)C(=O)NCCCc2ccccc2)cc1 (stereo not shown) | -8.65
O=C(Nc1ccc(Cl)cc1)[C@@H]1[C@@H]2C(=O)N(c3ccc(Cl)cc3)C(=O)[C@@H]2[C@H]2C=CC=NN21 | 0.701
CCOc1ccc(NC(=O)CN(c2ccc(OC)cc2)S(=O)(=O)c2cccs2)cc1 | 2.87
CC(C)CC1Nc2ncnc(N3CCOCC3)c2N(Cc2ccc(Br)cc2)C1=O.O=C(O)C(F)(F)F (stereo not shown) | 9.91
O=C(CNS(=O)(=O)c1ccc(F)cc1)N1CCCC1 | 8.95
Cc1ccsc1/C=C/C1=Cc2c(sc(NC(=O)CSc3n[nH]c(N)n3)c2C#N)C(C)(C)C1 | 7.37
Cc1c(NC(=O)CN2C(=O)c3ccccc3S2(=O)=O)c(=O)n(-c2ccccc2)n1C | 6.5
O=C(Nc1nc2c(F)cc(F)cc2s1)C1CC(=O)N(Cc2ccco2)C1 (stereo not shown) | 0.707
CC(C)(C)C(=O)/C=C/c1ccc(Oc2ccccc2)cc1 | 11.9
O=C(O)/C(=C\c1c(C(=O)O)[nH]c2cc(Cl)cc(Cl)c12)c1ccccc1 | 13.4
O=C(O)c1cc(-c2ccc(/C=N/NC(=S)Nc3ccccc3)o2)ccc1Cl | 5.46
COc1ccccc1NC(=O)c1ccc(Cl)c(S(=O)(=O)N2CCOCC2)c1 | 3.63
CN1C(=O)NC(=O)/C(=C/c2ccc(C(=O)O)cc2)C1=O | 5.5
Cc1ccc(/C=N/NC(=O)c2ccc3c(c2)OCCO3)s1 | 10.5
Cc1cc(/C=C2/NC(=O)N(c3ccccc3)C2=O)c(C)n1-c1cccnc1 | 9.45
CC(C)COc1cccc(-c2cc(C(=O)N/N=C/c3ccncc3)c3ccccc3n2)c1 | 8.04
COc1cc(C#N)ccc1OC(=O)Cc1cc(OC)c(OC)c(OC)c1 | 5.98
Cc1cccc(C)c1-n1c(C)cc(/C=N\NC(=O)CC(=O)NC2CCCCC2)c1C | 13
Cc1ccccc1Sc1ccc(N)cn1 | 12.1
CCOc1ccccc1OCC(=O)Nc1ccc(N2CCCCC2)cc1 | 10.3
COc1ccc(NC(=O)CN(C)C(=O)c2ccc(COc3ccccc3)o2)cc1 | 4.2
O=C(NC1CCCCC1)C(Cc1ccccc1)N1C(=O)C2C3CCC(C3)C2C1=O (stereo not shown) | 6.24
